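Test compounds were applied to cells in 96-well plates for 48 hours at 5 doses. GI50 is the concentration that inhibits growth by half. TGI: total growth inhibition.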
What follows are compounds tested on NCI-H322M lung (assay: growth of human tumour cells (NCI), 48 h).

SMILES | GI50 | TGI
CCNC(=O)Oc1ccc(/C(=C(/C)c2ccccc2)c2ccc(OCCN3CCCCCC3)cc2)cc1 | 4.25 µM | 15.6 µM
CCc1nn2c(C)cc(C)nc2c1Cc1ccc(/C=C/CN2CCN(CCOCCOCCN3CCN(C/C=C/c4ccc(Cc5c(CC)nn6c(C)cc(C)nc56)cc4)CC3)CC2)cc1 | 2.66 µM | 7.54 µM
C=C1C(=O)O[C@@H]2C[C@@H](C)/C=C\C(=O)[C@](C)(OC(C)=O)C[C@H](OC(=O)/C(C)=C\C)[C@@H]12 | 16.3 µM | > 25 µM

Reference: PubChem BioAssay (NCI)
